# The list shows a part of the results.
# B1: MGL1 (Mus musculus), P49300 (protein)
# chain: MIYENLQNSRIEEKTQEPGKAPSQSFLWRILSWTHLLLFSLGLSLLLLVVVSVIGSQNSQLRRDLGTLRATLDNTTSKIKAEFQSLDSRADSFEKGISSLKVDVEDHRQELQAGRDLSQKVTSLESTVEKREQALKTDLSDLTDHVQQLRKDLKALTCQLANLKNNGSEVACCPLHWTEHEGSCYWFSESEKSWPEADKYCRLENSHLVVVNSLEEQNFLQNRLANVVSWIGLTDQNGPWRWVDGTDFEKGFKNWAPLQPDNWFGHGLGGGEDCAHITTGGPWNDDVCQRTFRWICEMKLAKES
# Assays:
# Assay in all cases: glycan array binding signal (z-score within array); higher = stronger binding
# Settings in all cases: glycan notation: IUPAC condensed, linker removed
# [1] = target: Man(a1-3)[Man(a1-6)]Man(a1-6)[Man(a1-2)Man(a1-3)]Man(b1-4)GlcNAc(b1-4)GlcNAc
# Outline: (§1)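 Glycan array binding is given as a within-array Z-score, which can be read as non-binding when negative. The arrays, 3228 of them, came from the Consortium for Functional Glycomics database and were retained only where the protein sequence was available. Z-scores were averaged across arrays of the same protein sequence at different concentrations or buffers and across linkers.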
# [2] = target: Man(a1-3)[Man(a1-6)]Man(a1-6)[Man(a1-3)]Man
# Outline: as §1
# [3] = target: Man(a1-3)[Man(a1-6)]Man(a1-6)[Man(a1-3)]Man(b1-4)GlcNAc(b1-4)GlcNAc
# Outline: as §1
# [4] = target: Man(a1-3)[Man(a1-6)]Man(b1-4)GlcNAc(b1-4)GlcNAc
# Outline: as §1
# [5] = target: Man(a1-3)[Man(a1-6)]Man(b1-4)GlcNAc(b1-4)[Fuc(a1-6)]GlcNAc
# Outline: as §1
# Man(a1-6)Man = target: Man(a1-6)Man
# Outline: as §1
# Man(b1-4)GlcNAc = target: Man(b1-4)GlcNAc
# Outline: as §1
# MurNAc(b1-4)GlcNAc = target: MurNAc(b1-4)GlcNAc
# Outline: as §1
# Neu5Ac(a2-3)Gal = target: Neu5Ac(a2-3)Gal
# Outline: as §1
# [6] = target: Neu5Ac(a2-3)Gal(b1-3)GalNAc
# Outline: as §1
# [7] = target: Neu5Ac(a2-3)Gal(b1-3)GalNAc(b1-3)Gal(a1-4)Gal(b1-4)Glc
# Outline: as §1
# [8] = target: Neu5Ac(a2-3)Gal(b1-3)GalNAc(b1-4)[Neu5Ac(a2-3)]Gal(b1-4)Glc
# Outline: as §1
# [9] = target: Neu5Ac(a2-3)Gal(b1-3)GalNAc(b1-4)[Neu5Ac(a2-8)Neu5Ac(a2-3)]Gal(b1-4)Glc
# Outline: as §1
# [10] = target: Neu5Ac(a2-3)Gal(b1-3)GalNAc6S
# Outline: as §1
# [11] = target: Neu5Ac(a2-3)Gal(b1-3)GlcNAc
# Outline: as §1
# [12] = target: Neu5Ac(a2-3)Gal(b1-3)GlcNAc(b1-2)Man
# Outline: as §1
# [13] = target: Neu5Ac(a2-3)Gal(b1-3)GlcNAc(b1-2)Man(a1-3)[GlcNAc(b1-4)][Neu5Ac(a2-3)Gal(b1-3)GlcNAc(b1-2)Man(a1-6)]Man(b1-4)GlcNAc(b1-4)GlcNAc
# Outline: as §1
# [14] = target: Neu5Ac(a2-3)Gal(b1-3)GlcNAc(b1-2)Man(a1-3)[Neu5Ac(a2-3)Gal(b1-3)GlcNAc(b1-2)Man(a1-6)]Man(b1-4)GlcNAc(b1-4)GlcNAc
# Outline: as §1
# [15] = target: Neu5Ac(a2-3)Gal(b1-3)GlcNAc(b1-3)Gal(b1-3)GlcNAc
# Outline: as §1
# [16] = target: Neu5Ac(a2-3)Gal(b1-3)GlcNAc(b1-3)Gal(b1-4)GlcNAc
# Outline: as §1
# [17] = target: Neu5Ac(a2-3)Gal(b1-3)GlcNAc(b1-3)GalNAc
# Outline: as §1
# [18] = target: Neu5Ac(a2-3)Gal(b1-3)GlcNAc(b1-4)Gal(b1-4)Glc
# Outline: as §1
# [19] = target: Neu5Ac(a2-3)Gal(b1-3)GlcNAc(b1-6)GalNAc
# Outline: as §1
# [20] = target: Neu5Ac(a2-3)Gal(b1-3)GlcNAc6S
# Outline: as §1
# [21] = target: Neu5Ac(a2-3)Gal(b1-3)[Fuc(a1-4)]GlcNAc
# Outline: as §1
# [22] = target: Neu5Ac(a2-3)Gal(b1-3)[Fuc(a1-4)]GlcNAc(b1-3)Gal(b1-3)[Fuc(a1-4)]GlcNAc
# Outline: as §1
# [23] = target: Neu5Ac(a2-3)Gal(b1-3)[Fuc(a1-4)]GlcNAc(b1-3)Gal(b1-4)[Fuc(a1-3)]GlcNAc
# Outline: as §1
# [24] = target: Neu5Ac(a2-3)Gal(b1-3)[GlcNAc(b1-6)]GalNAc
# Outline: as §1
# [25] = target: Neu5Ac(a2-3)Gal(b1-3)[Neu5Ac(a2-3)Gal(b1-4)]GlcNAc
# Outline: as §1
# [26] = target: Neu5Ac(a2-3)Gal(b1-3)[Neu5Ac(a2-6)]GalNAc
# Outline: as §1
# [27] = target: Neu5Ac(a2-3)Gal(b1-3)[Neu5Ac(a2-6)]GlcNAc(b1-3)[Fuc(a1-3)[Gal(b1-4)]GlcNAc(b1-6)]Gal(b1-4)Glc
# Outline: as §1
# [28] = target: Neu5Ac(a2-3)Gal(b1-3)]Neu5Ac(a2-3)Gal(b1-4)]GlcNAc
# Outline: as §1
# Neu5Ac(a2-3)Gal(b1-4)Glc = target: Neu5Ac(a2-3)Gal(b1-4)Glc
# Outline: as §1
# [29] = target: Neu5Ac(a2-3)Gal(b1-4)GlcNAc
# Outline: as §1
# [30] = target: Neu5Ac(a2-3)Gal(b1-4)GlcNAc(b1-2)Man
# Outline: as §1
# [31] = target: Neu5Ac(a2-3)Gal(b1-4)GlcNAc(b1-2)Man(a1-3)[GlcNAc(b1-4)][Neu5Ac(a2-3)Gal(b1-4)GlcNAc(b1-2)Man(a1-6)]Man(b1-4)GlcNAc(b1-4)GlcNAc
# Outline: as §1
# [32] = target: Neu5Ac(a2-3)Gal(b1-4)GlcNAc(b1-2)Man(a1-3)[Neu5Ac(a2-3)Gal(b1-4)GlcNAc(b1-2)Man(a1-6)]Man(b1-4)GlcNAc(b1-4)GlcNAc
# Outline: as §1
# [33] = target: Neu5Ac(a2-3)Gal(b1-4)GlcNAc(b1-2)Man(a1-3)[Neu5Ac(a2-3)Gal(b1-4)GlcNAc(b1-2)Man(a1-6)]Man(b1-4)GlcNAc(b1-4)[Fuc(a1-6)]GlcNAc
# Outline: as §1
binder,measurement,setting,value
B1,glycan array binding signal (z-score),[1],-0.175
same,glycan array binding signal (z-score),[2],0.117
same,glycan array binding signal (z-score),[3],-0.523
same,glycan array binding signal (z-score),[4],-0.089
same,glycan array binding signal (z-score),[5],-0.296
same,glycan array binding signal (z-score),Man(a1-6)Man,-0.85
same,glycan array binding signal (z-score),Man(b1-4)GlcNAc,-0.513
same,glycan array binding signal (z-score),MurNAc(b1-4)GlcNAc,-0.629
same,glycan array binding signal (z-score),Neu5Ac(a2-3)Gal,-0.346
same,glycan array binding signal (z-score),[6],-0.075
same,glycan array binding signal (z-score),[7],0.175
same,glycan array binding signal (z-score),[8],-0.374
same,glycan array binding signal (z-score),[9],-0.511
same,glycan array binding signal (z-score),[10],-0.6
same,glycan array binding signal (z-score),[11],-0.296
same,glycan array binding signal (z-score),[12],-0.317
same,glycan array binding signal (z-score),[13],-0.599
same,glycan array binding signal (z-score),[14],0.016
same,glycan array binding signal (z-score),[15],-0.442
same,glycan array binding signal (z-score),[16],-0.481
same,glycan array binding signal (z-score),[17],-0.111
same,glycan array binding signal (z-score),[18],-0.312
same,glycan array binding signal (z-score),[19],-0.36
same,glycan array binding signal (z-score),[20],0.295
same,glycan array binding signal (z-score),[21],-0.599
same,glycan array binding signal (z-score),[22],-0.165
same,glycan array binding signal (z-score),[23],-0.363
same,glycan array binding signal (z-score),[24],-0.879
same,glycan array binding signal (z-score),[25],-0.164
same,glycan array binding signal (z-score),[26],-0.424
same,glycan array binding signal (z-score),[27],0.121
same,glycan array binding signal (z-score),[28],-1.24
same,glycan array binding signal (z-score),Neu5Ac(a2-3)Gal(b1-4)Glc,-0.248
same,glycan array binding signal (z-score),[29],-0.002
same,glycan array binding signal (z-score),[30],-0.184
same,glycan array binding signal (z-score),[31],-0.275
same,glycan array binding signal (z-score),[32],0.46
same,glycan array binding signal (z-score),[33],-0.829

# — the supplement of paper PMC8728848
